In the RNAGym collection of RNA variant scans (doi:10.1101/gad.245936.114):
Variants at the floor of the assay are shown more often than the library holds them.

B1: tRNA (parent)
chain: CUCUCGGUAGCCAAGUUGGUUUAAGGCGCAAGACUUUAAUUUAUCACUACGAAAUCUUGAGAUCGGGCGUUCGACUCGCCCCCGGGAGAUUUUUUCCUCGAGCAA

Variants of: B1
Assay: nonsense suppression (GFP-seq) (ratio to wild type); higher = more function; SUP4oc tRNA, yeast GFP reporter sort-seq
Summary of the method: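 Sorted GFP/RFP bins of yeast were each Illumina-sequenced with a phred ≥30 cutoff; the cells held a genome-integrated ochre-suppressor tRNA variant from a library with ~3% random mutations, a galactose-driven GFP ochre reporter, and RFP. Culture was in raffinose/galactose medium containing 80 mg/L adenine. Nonsense suppression, termed GFPSEQ, is the median GFP/RFP of the bins weighted by each variant's estimated cell share per bin, relative to the unmutated parent tRNA, for variants reaching ≥100 reads and ≥30 cells.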

Point of comparison: G66U C75A, nonsense suppression 0.704. Against it:
- C64G G69C C80U — lower, ≤ 0.026
- C64G G73U — lower, ≤ 0.026
- C64G G85C — lower, ≤ 0.026
- C64G G85U — lower, ≤ 0.026
- C64G U71A — lower, ≤ 0.026
- C64G U76A — lower, ≤ 0.026
- C64U A74U — lower, ≤ 0.026
- C64U A87G — lower, ≤ 0.026
- C64U A89U — lower, ≤ 0.026
- C64U C68G — lower, ≤ 0.026
- C64U C80G — lower, ≤ 0.026
- C64U C81A — lower, ≤ 0.026
- C64U C82U C83G — lower, ≤ 0.026
- C64U G65C — lower, ≤ 0.026
- C64U G78C — lower, ≤ 0.026
- C64U G84U — lower, ≤ 0.026
- C64U G88A — lower, ≤ 0.026
- C64U U71C C77U — lower, ≤ 0.026
- C64U U71G — lower, ≤ 0.026
- G65A A74C — lower, ≤ 0.026
- G65A A74C C81A — lower, ≤ 0.026
- G65A C68A C77A — lower, ≤ 0.026
- G65A C75A — lower, 0.109
- G65A C75G — lower, ≤ 0.026
- G65A C77U — lower, ≤ 0.026
- G65A C79G A89G — lower, ≤ 0.026
- G65A G66A — lower, ≤ 0.026
- G65A G67A A87G — lower, ≤ 0.026
- G65A G85A — lower, ≤ 0.026
- G65C A74G — lower, ≤ 0.026
- G65C A89U — lower, ≤ 0.026
- G65C C68A C82G — lower, ≤ 0.026
- G65C C68U — lower, ≤ 0.026
- G65C C75U G85C — lower, ≤ 0.026
- G65C C77A — lower, ≤ 0.026
- G65C C79G — lower, ≤ 0.026
- G65C C80A A87G — lower, ≤ 0.026
- G65C C80A C82A — lower, ≤ 0.026
- G65C G66A C81U — lower, ≤ 0.026
- G65C G66A C82U — lower, ≤ 0.026
- G65C G67U — lower, ≤ 0.026
- G65C G69C — lower, ≤ 0.026
- G65C G69C C75U — lower, ≤ 0.026
- G65C G69U — lower, ≤ 0.026
- G65C G73U A74C G88C — lower, ≤ 0.026
- G65C G88A — lower, ≤ 0.026
- G65C G88C — lower, ≤ 0.026
- G65C U71C — lower, ≤ 0.026
- G65C U76A — lower, ≤ 0.026
- G65C U76A G86A G88A — lower, ≤ 0.026
- G65U C68G — lower, ≤ 0.026
- G65U C77A — lower, ≤ 0.026
- G65U C80G — lower, ≤ 0.026
- G65U C80U — lower, ≤ 0.026
- G65U G66U A87C — lower, ≤ 0.026
- G65U G69U — lower, ≤ 0.026
- G65U G78A — lower, ≤ 0.026
- G65U G85U — lower, ≤ 0.026
- G65U G88C — lower, ≤ 0.026
- G65U U70A G73A A89U — lower, ≤ 0.026
- G65U U76C — lower, ≤ 0.026
- G66A A74U — lower, ≤ 0.026
- G66A A87G — lower, ≤ 0.026
- G66A C75A — higher, 1.18
- G66A C75A C80A — lower, ≤ 0.026
- G66A C75U — lower, 0.368
- G66A C77G — lower, ≤ 0.026
- G66A C77U — lower, ≤ 0.026
- G66A C79G C83G — lower, ≤ 0.026
- G66A C80G G86C — lower, ≤ 0.026
- G66A C82G — lower, ≤ 0.026
- G66A G67A — lower, ≤ 0.026
- G66A G69C — lower, ≤ 0.026
- G66A G86U — lower, ≤ 0.026
- G66A G88A — lower, ≤ 0.026
- G66A U70C — lower, ≤ 0.026
- G66A U70C A87G — lower, ≤ 0.026
- G66A U70C A87U — lower, ≤ 0.026
- G66A U76A — lower, ≤ 0.026
- G66A U76C C81U — lower, ≤ 0.026
- G66C A74U A87C — lower, ≤ 0.026
- G66C A87G — lower, ≤ 0.026
- G66C C68A — lower, ≤ 0.026
- G66C C68A G69C — lower, ≤ 0.026
- G66C C82G — lower, ≤ 0.026
- G66C G67C U71C U76A C77G — lower, ≤ 0.026
- G66C G69C — lower, ≤ 0.026
- G66C G69C G73C G84C — lower, ≤ 0.026
- G66C G73C C82G — lower, ≤ 0.026
- G66C G78A — lower, 0.0452
- G66C G78C — lower, ≤ 0.026
- G66C G84C — lower, ≤ 0.026
- G66C U70C — lower, ≤ 0.026
- G66C U70C U71G — lower, ≤ 0.026
- G66C U70G — lower, ≤ 0.026
- G66C U71C — lower, ≤ 0.026
- G66U A87C — lower, ≤ 0.026
- G66U C81G — lower, ≤ 0.026
- G66U C82G — lower, ≤ 0.026
- G66U G69A G84C — lower, ≤ 0.026
- G66U G73U C75A C81G — lower, ≤ 0.026
- G66U G86C — lower, ≤ 0.026
- G66U U70A — lower, ≤ 0.026
- G66U U70C — lower, ≤ 0.026
- G66U U71A — lower, ≤ 0.026
- G66U U76A C80G G86U — lower, ≤ 0.026
- G67A A74U — lower, 0.0276
- G67A A87U — lower, ≤ 0.026
- G67A A89C — lower, ≤ 0.026
- G67A A89U — lower, ≤ 0.026
- G67A C68G — lower, ≤ 0.026
- G67A C75A C79A — lower, 0.203
- G67A C75G — lower, 0.194
- G67A C77A C82G — lower, ≤ 0.026
- G67A C77G C82U — lower, ≤ 0.026
- G67A C82G — lower, ≤ 0.026
- G67A C82U — lower, ≤ 0.026
- G67A G69A G88U — lower, ≤ 0.026
- G67A G73U C79U — lower, ≤ 0.026
- G67A G84C — lower, ≤ 0.026
- G67A G86A — lower, ≤ 0.026
- G67A G88U — lower, ≤ 0.026
- G67A U70G U76G — lower, ≤ 0.026
- G67A U71C A89C — lower, ≤ 0.026
- G67A U71G C72U A74C — lower, ≤ 0.026
- G67A U76A — lower, ≤ 0.026
- G67C C72U — lower, ≤ 0.026
- G67C C75U — lower, ≤ 0.026
- G67C C77A — lower, ≤ 0.026
- G67C C79G — higher, 1.03
- G67C C81A — lower, ≤ 0.026
- G67C C81U — lower, ≤ 0.026
- G67C C82U — lower, ≤ 0.026
- G67C C83G A87C — lower, ≤ 0.026
- G67C G69A G85C — lower, ≤ 0.026
- G67C G73C G88A A89U — lower, ≤ 0.026
- G67C G84A — lower, ≤ 0.026
- G67C G85C — lower, ≤ 0.026
- G67C G86C — lower, ≤ 0.026
- G67C G88C — lower, ≤ 0.026
- G67C U71A — lower, ≤ 0.026
- G67C U76A C82A — lower, ≤ 0.026
- G67C U76G — lower, ≤ 0.026
- G67U A74G — lower, ≤ 0.026
- G67U C68A U70A — lower, ≤ 0.026
- G67U C72G C77G — lower, ≤ 0.026
- G67U C80A — lower, ≤ 0.026
- G67U C81G — lower, ≤ 0.026
- G67U C81U — lower, ≤ 0.026
- G67U C82A — lower, ≤ 0.026
- G67U C83G — lower, ≤ 0.026
- G67U G73C — lower, ≤ 0.026
- G67U G78C — lower, ≤ 0.026
- G67U G85C — lower, ≤ 0.026
- G67U U70A G73A A74C C81A — lower, ≤ 0.026
- G67U U70G C82A — lower, ≤ 0.026
- G67U U71A G78C — lower, ≤ 0.026
- C68A A74C — lower, ≤ 0.026
- C68A A89C — lower, ≤ 0.026
- C68A C77U — lower, ≤ 0.026
- C68A C81G — lower, ≤ 0.026
- C68A G78A — lower, ≤ 0.026
- C68A G85C — lower, ≤ 0.026
- C68A U70G — lower, ≤ 0.026
- C68A U71A — lower, ≤ 0.026
- C68A U76C G88A — lower, ≤ 0.026
